B1: LINE1-full (parent)
chain: UACGUAGGUGGUUUUCCCCUGAUAGUGCUAAGGGGGCCUGGAAGUUUGGACUGGGCAGAGCUCAACACAGCGUGGCAAAGUGGCUGUGGCUAGACUGCCUCUCUGGAUUCCUCGUCACUCAGCAGGGCAUCUCUGAGAGAAAUGCC

Read counts are not given, so values of variants with three or more changes are uncertain.

This series covers variants of B1. As to the kind of experiment: self-cleavage, relative activity (ratio to wild type); higher = more cleavage; in vitro, sequencing; the parent is a self-cleaving ribozyme.
As for U47C U85C U143A, the self-cleavage was found to be 0.22.

In the case of U47C A64U A78U A136G, the self-cleavage stood at 0.62.

On to U47A C84U A141G, for which the self-cleavage was 0.07.

Consider U47C C71U A141G, for which the self-cleavage was found to be 1.87.

Take U47A U52C C131U A141G: the self-cleavage came out at 0.82.

Turning to U46C A67U A94G U112C A141G, the self-cleavage turned out to be 0.

Take U46C A92G A129G: the self-cleavage amounted to 0.21.

U46A U130C A140G: the self-cleavage worked out at 1.49.

Take U47C U87A A94U: the self-cleavage turned out to be 0.14.

For U45C U47A A77U, the self-cleavage was determined as 1.71.

U46A A94G U102A: the self-cleavage was 0.25.

On to U45C A107U U115C, for which the self-cleavage is 1.6.

Take U47C U62C A142C: the self-cleavage came out at 0.

As for U47C G55U U134C, the self-cleavage turned out to be 0.61.

Consider U45C A79G G114A, for which the self-cleavage was found to be 1.78.

On to U47G A69G U143A, for which the self-cleavage is 0.

Take U46A A77G U108A: the self-cleavage was 0.63.

For the variant U46C A78G A121U A141G, the self-cleavage came out at 1.3.

On to U45G A59U A92G A138G, for which the self-cleavage was determined as 0.3.

As to U46G A124G U130A, the self-cleavage was determined as 2.02.

Take U45C U73A A94G A129G A141G: the self-cleavage came to 0.42.

Take U47A U130C A142G: the self-cleavage came to 2.04.

Consider U47C U108C U115C, for which the self-cleavage came out at 1.84.

With U47C U115C A117U, the self-cleavage amounted to 1.93.

On to U47C C84A A121G, for which the self-cleavage came to 0.15.

As for U47C A69G U109C, the self-cleavage is 0.66.

For the variant U46A U47G A64U U73C C113U, the self-cleavage was 0.32.

On to U47C U130C A140G, for which the self-cleavage came to 2.45.

Regarding U46C A94G A124U, the self-cleavage came out at 0.25.

U46A A121G U130C: the self-cleavage worked out at 1.6.

Turning to U45C U108C A140G, the self-cleavage came out at 2.04.

Consider U46C A79G G80A G86A U91A U112C C120A A141G, for which the self-cleavage worked out at 0.11.

On to U46C A69G U87A, for which the self-cleavage is 0.

In the case of U45C U112A U119C U132C A142G, the self-cleavage is 0.

As to U46C A57G A65U U119C, the self-cleavage was found to be 0.34.

Take U47C A77G U109C: the self-cleavage was 1.72.

Take U47C A69U U109A U115A: the self-cleavage amounted to 0.03.

With U46C A59G U62C U109C, the self-cleavage turned out to be 0.46.

With U47C U102C A138G, the self-cleavage was 2.

As for U46A A67G A94G, the self-cleavage was found to be 0.25.

Consider U46C U130C A140G A142U, for which the self-cleavage was 1.53.

As to U45C A67G A124U A142G, the self-cleavage is 0.

Regarding U45C G54A A69G A78G U112A A140G, the self-cleavage was 0.02.

In the case of U45G U73A U87C U96A A107G, the self-cleavage turned out to be 0.17.

With U47C A77G C113A U134A, the self-cleavage was determined as 1.94.

Regarding U46C U96A A107G, the self-cleavage was 0.21.

As for U46C U47G A50G A77U U85A, the self-cleavage is 0.

With U45C C99A A129G, the self-cleavage came out at 0.59.

Take U46C U73A A107U A124G: the self-cleavage turned out to be 2.03.

Turning to U45C C61U A64C, the self-cleavage amounted to 0.07.

Take U46C G125U A140U: the self-cleavage was found to be 1.43.

Turning to U46C A77U U134C, the self-cleavage turned out to be 1.31.

Turning to U47A G54A U81G U104G A117U, the self-cleavage amounted to 0.24.

On to U46C C61U A65U U104C, for which the self-cleavage was 0.06.

Regarding U45C G58A U112A, the self-cleavage was determined as 0.12.

Regarding U47A U91C U102C, the self-cleavage was 0.78.

Regarding U47A A69G G106U A129U, the self-cleavage stood at 0.28.

As for U46C U102A A138G, the self-cleavage is 1.97.

With U47C U102A U143A, the self-cleavage is 1.23.

U45C U96A U100C A124G A141G: the self-cleavage was found to be 0.

Turning to U47A A117G U143G, the self-cleavage is 2.8.

In the case of U46A U47C A50U, the self-cleavage was found to be 0.89.

Regarding U47G U62A A107G, the self-cleavage was found to be 0.36.

U47A A50G U73C: the self-cleavage was determined as 1.75.

Take U46C C71U A140G: the self-cleavage is 1.05.

On to U47A A77G U100C, for which the self-cleavage turned out to be 2.35.

U45C U132C U143C: the self-cleavage was 1.84.

Turning to U45C U108C G125U, the self-cleavage is 1.44.

As for U46A U47C A64U U134A, the self-cleavage was found to be 0.33.

Regarding U45C U62A U104C U130C, the self-cleavage was found to be 0.

With U46A A59G U73C G105A A140G, the self-cleavage turned out to be 0.

Turning to U46C A57G A77U U87A, the self-cleavage came to 0.08.

With U47C A57G U109A A141G, the self-cleavage came out at 1.04.

For the variant U46C U104C A138U, the self-cleavage was found to be 2.4.

In the case of U46A A65G A94C, the self-cleavage came to 0.03.

Take U47C A57U A94G A142G: the self-cleavage was determined as 0.

For U47A U81C U96A, the self-cleavage is 0.04.

For the variant U46A C63U A65G U100C A140G, the self-cleavage came out at 0.02.

In the case of U46C C56U A64U, the self-cleavage turned out to be 0.16.

U46C A77G U112C U143A: the self-cleavage is 2.9.

For the variant U46C A57C A65G, the self-cleavage is 0.37.

Turning to U47C G60A G72A A129G A141U, the self-cleavage was 0.03.

For U47C U115G A141G, the self-cleavage came out at 1.96.

Consider U47C A64U A124G, for which the self-cleavage was found to be 0.37.

In the case of U46C A67G U115A, the self-cleavage was 0.84.

U46C U47C U112C: the self-cleavage is 1.31.

Take U46A U102C U109C: the self-cleavage was 1.66.

For the variant U45G U100A C146U, the self-cleavage was 0.85.

Regarding U47C U115C A136U, the self-cleavage is 1.43.

In the case of U46C U73A U104C, the self-cleavage stood at 1.84.

Turning to U46C A57U G126A, the self-cleavage was found to be 0.23.

On to U46C A124C A142G C145G, for which the self-cleavage came out at 1.34.

As for U47A A79U U143C, the self-cleavage was found to be 2.34.

On to U47C A136U A140G A142U, for which the self-cleavage was found to be 1.31.

As to U45C U73A U109C, the self-cleavage amounted to 1.28.

For U46G U91A A140U U143C, the self-cleavage came out at 0.92.

U46G G88A U102A: the self-cleavage was found to be 0.05.

For U45C A77U A136G, the self-cleavage is 0.99.

Regarding U45C A79U U81A, the self-cleavage came out at 2.69.

With U47C U85C G135A, the self-cleavage is 0.33.

Consider U46C C76U U96C, for which the self-cleavage was 0.3.

With U47A A59G A64G, the self-cleavage is 0.15.

As to U46C A69U A78C U85C G137A, the self-cleavage was determined as 0.11.

With U46A A78G U115A, the self-cleavage worked out at 1.07.

Consider U46A C68U U87G, for which the self-cleavage was found to be 0.08.

For the variant U46C U104G C123U, the self-cleavage stood at 0.79.

For U46C A65G G106C U134C, the self-cleavage is 0.

In the case of U47C C56A A140G, the self-cleavage came out at 0.07.

As for U46C G49U U134A, the self-cleavage is 0.72.

Regarding U46A A107G A129G, the self-cleavage amounted to 0.79.

For U45C G114A A136G, the self-cleavage was found to be 1.28.

For U47A A59G A117U A138G, the self-cleavage is 0.09.

Turning to U46A U73A A141G, the self-cleavage worked out at 1.11.

In the case of U46A U81A U87C, the self-cleavage was determined as 0.2.

As to U46A A59G U87A, the self-cleavage stood at 0.04.

Regarding U47C A136G A142G, the self-cleavage was 1.97.

Consider U46C A79G A140G, for which the self-cleavage is 1.15.

U47A G55A G125A U130C: the self-cleavage worked out at 0.11.

Take U46G C56U A94G U96C: the self-cleavage came out at 0.

For U46C A67G U73A A117U A124U, the self-cleavage is 1.44.

With U47C U62C A92G C116A, the self-cleavage was 0.06.

Consider U46C G83A U100A A117G, for which the self-cleavage came out at 0.55.

Consider U45C A107G U134A, for which the self-cleavage was 1.02.

As to U46C U81A C113A A140G, the self-cleavage amounted to 1.9.

As for U46A A69U A94G A142C, the self-cleavage stood at 0.03.

Turning to U46C C68U G114A C116U, the self-cleavage is 0.32.

For U45G A59U U119A, the self-cleavage was found to be 0.72.

With U46C G114A A117U, the self-cleavage came out at 1.3.

With U46C C99A G105U, the self-cleavage came out at 0.48.

With U47A A69G U132A U143C, the self-cleavage came to 0.

U47A G54A U112C G127U: the self-cleavage worked out at 0.38.

For U47C A64G A141G, the self-cleavage worked out at 0.36.

As for U45G U119G U132C A142G, the self-cleavage was 1.41.

Take U45C U62C A77U U132C: the self-cleavage worked out at 0.12.

For the variant U47A A64C G93A A136G, the self-cleavage is 0.06.

In the case of U47C C71U U81A, the self-cleavage stood at 1.21.

Take U47C U73G C131U: the self-cleavage worked out at 1.74.

In the case of U46A A107U U109C, the self-cleavage turned out to be 1.41.

Consider U47C U96C U119C, for which the self-cleavage came out at 0.71.

For U47A A50U A77U A121G, the self-cleavage is 1.

With U47C U109A A138G, the self-cleavage stood at 1.5.

U47C U104C C113U U143C: the self-cleavage was found to be 0.74.

Regarding U47A U87A U112A, the self-cleavage was found to be 0.09.

For U45C U96A U100C, the self-cleavage came out at 0.14.

With U46C U62C A65G A69G A117U, the self-cleavage turned out to be 0.

Regarding U46C C68A U112C, the self-cleavage was found to be 0.

For U45C U46A A77G U119C G122C, the self-cleavage is 2.87.

As for U47C A69G A117U, the self-cleavage is 0.96.

For the variant U47C U96A U143C, the self-cleavage was 0.14.

U47C C56U U96A U134A: the self-cleavage worked out at 0.01.

On to U46C U109A G137U, for which the self-cleavage was 1.02.

For U46A G60A G83A U87A, the self-cleavage was 0.03.

On to U46C U62C U104A, for which the self-cleavage stood at 0.09.

On to U46C A69G A78G G83A, for which the self-cleavage was determined as 0.21.

With U45C A67U U85G U100C A140G, the self-cleavage turned out to be 0.

For U46C A78G A138G, the self-cleavage was found to be 1.97.

With U45C A107G U112C U130C, the self-cleavage is 0.

For the variant U46C G49U A107G, the self-cleavage is 1.02.

For U46A A107G A141G, the self-cleavage came out at 1.69.

With U46C A69G U134A A140U, the self-cleavage was found to be 0.5.

U47C A50U A67G: the self-cleavage is 0.52.

On to U47C U85A A141C, for which the self-cleavage came to 0.34.

As to U46G U108C A136G, the self-cleavage came to 1.29.

Turning to U47A A65G G72C, the self-cleavage is 0.02.

As to U47A C68A A92C A94G A107G A142U, the self-cleavage was 0.1.

U46C G49U U109A U119C: the self-cleavage amounted to 1.2.

For the variant U46C U102C A138G, the self-cleavage is 1.75.

These data come from the RNAGym collection of RNA variant scans (doi:10.7554/elife.90254).
